Reference: the supplement of paper PMC4604168 (melanoma cell lines)
This is one part of the list. Single values are uncertain, as repeats are few or missing.

Key:
Test in all cases: cell count relative to DMSO control; melanoma cells; higher = more viable cells
Details in all cases: library dose: low library concentration; 72 h
COLO792 = tested on: COLO792
COLO800 = tested on: COLO800
COLO829 = tested on: COLO829
G361 = tested on: G361
IPC-298 = tested on: IPC-298
IST-MEL1 = tested on: IST-MEL1
LB2518-MEL = tested on: LB2518-MEL
LOXIMVI = tested on: LOXIMVI
MEL-HO = tested on: MEL-HO
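Note: cell number obtained by counting DAPI-stained nuclei in high-throughput microscope images with image analysis software, screen run in 1,536-well plates.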

SMILES | cell count (COLO792) [%] | cell count (COLO800) [%] | cell count (COLO829) [%] | cell count (G361) [%] | cell count (IPC-298) [%] | cell count (IST-MEL1) [%] | cell count (LB2518-MEL) [%] | cell count (LOXIMVI) [%] | cell count (MEL-HO) [%]
O=C(O)c1ccc2c(c1)nc(Nc1cccc(Cl)c1)c1ccncc12 + O=C(O)C(=O)Nc1sc2c(c1C(=O)O)CCNC2 [TCS401] (first compound 0.4 µM, partner dose 1.66667 µM) | 96.6 | 90 | 90.6 | 83.8 | 93.7 | 114 | 122 | 99.9 | 92.5
O=C(Nc1cc(C(F)(F)F)cc(C(F)(F)F)c1)c1cc(Cl)ccc1O + COc1ccc(COc2ccc(Cc3cnc(N)nc3N)cc2OC)cc1 [GW2580] (first compound 0.016 µM, partner dose 1 µM) | 101 | 78.5 | 86.5 | 94.1 | 94.8 | 98.7 | 91.7 | 96.4 | 105
Cc1cc(N2CCOCC2)cc2[nH]c(-c3c(NC[C@@H](O)c4cccc(Cl)c4)cc[nH]c3=O)nc12 + CN(C)S(=O)(=O)c1ccc2c(c1)/C(=C/c1cc3c([nH]1)CCCC3)C(=O)N2 [SU6656] (first compound 0.2 µM, partner dose 0.4 µM) | 68.1 | 38.9 | 80.3 | 73.8 | 94.8 | 89.3 | 79.3 | 105 | 90.1
Cn1nnc2c(C(N)=O)ncn2c1=O [temozolomide] + CN(C)S(=O)(=O)c1ccc2c(c1)/C(=C/c1cc3c([nH]1)CCCC3)C(=O)N2 [SU6656] (first compound 2 µM, partner dose 0.4 µM) | 98.8 | 126 | 85 | 89.7 | 87.4 | 91 | 92.7 | 137 | 90.9
O=C(O)c1ccc2c(c1)nc(Nc1cccc(Cl)c1)c1ccncc12 + COc1cc2ncnc(Nc3ccc(Oc4ccccc4)cc3)c2cc1OC [SrcI1] (first compound 0.4 µM, partner dose 2 µM) | 82.6 | 135 | 91 | 97 | 88.2 | 102 | 118 | 67.3 | 92.1
O=C(Nc1cc(C(F)(F)F)cc(C(F)(F)F)c1)c1cc(Cl)ccc1O + NCC(=O)Nc1ccc(-n2nc(C(F)(F)F)cc2-c2ccc3c(ccc4ccccc43)c2)cc1 [OSU03012] (first compound 0.016 µM, partner dose 1 µM) | 88.5 | 88.6 | 83.2 | 95.4 | 78.2 | 85.2 | 87.2 | 54.7 | 107
O=C(O)[C@@H]1[O][Sb](=[O])([O][Sb]2(=[O])[O][C@H]([C@H](O)CO)[C@H](O)[C@H](C(=O)O)[O]2)[O][C@H]([C@H](O)CO)[C@@H]1O (stereo partly drawn) [stibogluconate] + NCC(=O)Nc1ccc(-n2nc(C(F)(F)F)cc2-c2ccc3c(ccc4ccccc43)c2)cc1 [OSU03012] (first compound 2 µM, partner dose 1 µM) | 88.5 | 126 | 78.8 | 95 | 97.1 | 95.3 | 93.4 | 124 | 98.6
O=C(Nc1cc(C(F)(F)F)cc(C(F)(F)F)c1)c1cc(Cl)ccc1O + CN(NC(=O)CC(=O)NN(C)C(=S)c1ccccc1)C(=S)c1ccccc1 [STA4783] (first compound 0.016 µM, partner dose 0.006 µM) | 77.1 | 34.2 | 71.3 | 88.2 | 96.7 | 69.5 | 78.8 | 80.7 | 98.9
Cn1nnc2c(C(N)=O)ncn2c1=O [temozolomide] + Cn1cncc1[C@@](N)(c1ccc(Cl)cc1)c1ccc2c(c1)c(-c1cccc(Cl)c1)cc(=O)n2C [tipifarnib] (first compound 2 µM, partner dose 0.01 µM) | 100 | 99.2 | 100 | 102 | 89.7 | 83.6 | 104 | 132 | 96.1
O=C(O)[C@@H]1[O][Sb](=[O])([O][Sb]2(=[O])[O][C@H]([C@H](O)CO)[C@H](O)[C@H](C(=O)O)[O]2)[O][C@H]([C@H](O)CO)[C@@H]1O (stereo partly drawn) [stibogluconate] + Cc1ccc(NC(=O)c2cccc(N(C)C)c2)cc1NC(=O)c1ccc(O)cc1 [ZM336372] (first compound 2 µM, partner dose 2 µM) | 104 | 173 | 93.9 | 90.1 | 80.1 | 94 | 88.8 | 105 | 87.5
Cn1nnc2c(C(N)=O)ncn2c1=O [temozolomide] + Cc1ccc(NC(=O)c2cccc(N(C)C)c2)cc1NC(=O)c1ccc(O)cc1 [ZM336372] (first compound 2 µM, partner dose 2 µM) | 108 | 92.8 | 110 | 123 | 76.2 | 96.4 | 86.5 | 80 | 96.1
O=C(Nc1cc(C(F)(F)F)cc(C(F)(F)F)c1)c1cc(Cl)ccc1O + Oc1nc(-c2ccc(C(F)(F)F)cc2)nc2c1CSCC2 [XAV939] (first compound 0.016 µM, partner dose 2 µM) | 94.1 | 99.1 | 116 | 87.5 | 96.2 | 86.3 | 89.5 | 90.1 | 93.9
Cn1nnc2c(C(N)=O)ncn2c1=O [temozolomide] + OCCn1cc(-c2cnc3nnn(Cc4ccc5ncccc5c4)c3n2)cn1 [PF04217903] (first compound 2 µM, partner dose 1 µM) | 86.6 | 97.2 | 90.8 | 103 | 88.6 | 89.2 | 102 | 68.1 | 88.4
O=C(O)[C@@H]1[O][Sb](=[O])([O][Sb]2(=[O])[O][C@H]([C@H](O)CO)[C@H](O)[C@H](C(=O)O)[O]2)[O][C@H]([C@H](O)CO)[C@@H]1O (stereo partly drawn) [stibogluconate] + NC(=O)Nc1cc(-c2cccc(F)c2)sc1C(=O)N[C@H]1CCCNC1 [AZD7762] (first compound 2 µM, partner dose 0.02 µM) | 98.8 | 104 | 117 | 116 | 107 | 106 | 144 | 98.1 | 101
O=C(O)c1ccc2c(c1)nc(Nc1cccc(Cl)c1)c1ccncc12 + NC(=O)Nc1cc(-c2cccc(F)c2)sc1C(=O)N[C@H]1CCCNC1 [AZD7762] (first compound 0.4 µM, partner dose 0.02 µM) | 104 | 93.2 | 78 | 102 | 94.7 | 103 | 145 | 77.9 | 81.7
O=C(O)[C@@H]1[O][Sb](=[O])([O][Sb]2(=[O])[O][C@H]([C@H](O)CO)[C@H](O)[C@H](C(=O)O)[O]2)[O][C@H]([C@H](O)CO)[C@@H]1O (stereo partly drawn) [stibogluconate] + COc1cc2c(Oc3ccc4[nH]c(C)cc4c3F)ncnc2cc1OCCCN1CCCC1 [cediranib] (first compound 2 µM, partner dose 0.4 µM) | 91.4 | 108 | 88.9 | 107 | 95.3 | 108 | 81.6 | 129 | 102
O=C(Nc1cc(C(F)(F)F)cc(C(F)(F)F)c1)c1cc(Cl)ccc1O + COc1cc(Nc2ncc(F)c(Nc3ccc4c(n3)NC(=O)C(C)(C)O4)n2)cc(OC)c1OC [Tamatinib] (first compound 0.016 µM, partner dose 0.4 µM) | 51.4 | 83.8 | 101 | 95.6 | 79.8 | 85.7 | 80.7 | 45.3 | 82.2
O=C(Nc1cc(C(F)(F)F)cc(C(F)(F)F)c1)c1cc(Cl)ccc1O + OCCn1cc(-c2cnc3nnn(Cc4ccc5ncccc5c4)c3n2)cn1 [PF04217903] (first compound 0.016 µM, partner dose 1 µM) | 94.4 | 113 | 103 | 102 | 107 | 98.3 | 84.5 | 130 | 94.6
O=C(O)[C@@H]1[O][Sb](=[O])([O][Sb]2(=[O])[O][C@H]([C@H](O)CO)[C@H](O)[C@H](C(=O)O)[O]2)[O][C@H]([C@H](O)CO)[C@@H]1O (stereo partly drawn) [stibogluconate] + O=C(CCCCCCC(=O)Nc1ccccc1)NO [vorinostat] (first compound 2 µM, partner dose 0.08 µM) | 98.1 | 108 | 104 | 114 | 96.4 | 103 | 94.6 | 121 | 89.9
O=C(Nc1cc(C(F)(F)F)cc(C(F)(F)F)c1)c1cc(Cl)ccc1O + COC(=O)c1sccc1S(=O)(=O)Nc1ccc(Nc2ccccc2)cc1OC [GSK0660] (first compound 0.016 µM, partner dose 1 µM) | 92.1 | 119 | 112 | 112 | 104 | 101 | 106 | 146 | 100
O=C(Nc1cc(C(F)(F)F)cc(C(F)(F)F)c1)c1cc(Cl)ccc1O + CCN(CC)CCCCNc1ncc2cc(-c3cc(OC)cc(OC)c3)c(NC(=O)NC(C)(C)C)nc2n1 [PD173074] (first compound 0.016 µM, partner dose 0.1 µM) | 104 | 84.5 | 81.6 | 109 | 96 | 100 | 113 | 134 | 121
Cn1nnc2c(C(N)=O)ncn2c1=O [temozolomide] + O=C(CCCCCCC(=O)Nc1ccccc1)NO [vorinostat] (first compound 2 µM, partner dose 0.08 µM) | 102 | 92.4 | 109 | 93.8 | 101 | 94.3 | 97.5 | 95 | 106
